Measured values taken from the supplement of paper PMC9911699.
The list shows a part of the results.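 How the source made its calls: active = average curve height above 101 Omnilog units; inactive = average height at or below 101.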 Most values come without repeats; read them as rough.

Key:
[1] = tested on: Acinetobacter baumannii AB6870155; assay: respiration area under curve on compound as sole carbon source (Biolog PM, 48 h) (arbitrary Omnilog units x h (AUC)); higher = more carbon source utilisation / respiration; conditions: Biolog inoculating fluid, temperature: 37 °C
[2] = tested on: Klebsiella pneumoniae KP6870155; assay: as above; conditions: Biolog inoculating fluid, temperature: 37 °C

Compound | respiration area under curve [1] | respiration area under curve [2]
C[C@H](O)[C@@H](O)[C@@H](O)[C@H](O)C=O [L-Fucose] | inactive: 1530 | active: 10900
CC[C@H](C)[C@H](N)C(=O)O [L-Isoleucine] | inactive: 4020 | inactive: 3170
NC(=O)CC[C@H](N)C(=O)O [L-Glutamine] | active: 12500 | active: 12100
CC(=O)C(C)=O [2,3-Butanedione] | inactive: 1780 | inactive: 2590
OC[C@@H](O)[C@H](O)[C@@H](O)CO [Xylitol] | inactive: 1590 | inactive: 4960
OC[C@H]1O[C@@H]2O[C@H]3[C@H](O)[C@@H](O)[C@@H](O[C@H]4[C@H](O)[C@@H](O)[C@@H](O[C@H]5[C@H](O)[C@@H](O)[C@@H](O[C@H]6[C@H](O)[C@@H](O)[C@@H](O[C@H]7[C@H](O)[C@@H](O)[C@@H](O[C@H]1[C@H](O)[C@H]2O)O[C@@H]7CO)O[C@@H]6CO)O[C@@H]5CO)O[C@@H]4CO)O[C@@H]3CO [Alpha-Cyclodextrin] | inactive: 2100 | inactive: 4330
OC[C@@H](O)[C@@H](O[C@@H]1O[C@H](CO)[C@H](O)[C@H](O)[C@H]1O)[C@H](O)[C@@H](O)CO [Lactitol] | inactive: 1560 | active: 9520
O=C(O)CCC(=O)O [Succinic Acid] | active: 11400 | active: 10600
CO[C@@H]1O[C@H](C(=O)O)[C@@H](O)[C@H](O)[C@H]1O [Beta-Methyl-D-Glucuronic Acid] | inactive: 1640 | inactive: 3670
O=C(CO)[C@@H](O)[C@H](O)[C@H](O)CO [D-Fructose] | inactive: 1580 | active: 11800
C[C@H](N)C(=O)O [L-Alanine] | active: 12100 | active: 11100
OC[C@H]1O[C@@H](O[C@H]2[C@H](O)[C@@H](O)[C@@H](O)O[C@@H]2CO)[C@H](O)[C@@H](O)[C@H]1O [Alpha-D-Lactose] | inactive: 1770 | active: 10900
CC(=O)N[C@H]1C(O)O[C@H](CO)[C@H](O)[C@@H]1O (stereo partly drawn) [N-Acetyl-D-Galactosamine] | inactive: 2000 | inactive: 4160
O=C(O)/C=C/C(=O)O [Fumaric Acid] | active: 11500 | active: 10700
O=c1ccn([C@@H]2O[C@H](CO)[C@@H](O)[C@H]2O)c(=O)[nH]1 [Uridine] | inactive: 2510 | active: 12200
CSCC[C@H](N)C(=O)O [L-Methionine] | inactive: 1870 | inactive: 4710
C[N+](C)(C)CC(O)CC(=O)[O-] (racemic) [D,L-Carnitine] | inactive: 2460 | inactive: 3200
Nc1ncnc2c1ncn2[C@H]1C[C@H](O)[C@@H](CO)O1 [2-Deoxy Adenosine] | inactive: 1730 | active: 11800
O=C(O)C(=O)O [Oxalic Acid] | inactive: 1760 | inactive: 4040
OC[C@H]1O[C@@H]2O[C@H]3[C@H](O)[C@@H](O)[C@@H](O[C@H]4[C@H](O)[C@@H](O)[C@@H](O[C@H]5[C@H](O)[C@@H](O)[C@@H](O[C@H]6[C@H](O)[C@@H](O)[C@@H](O[C@H]7[C@H](O)[C@@H](O)[C@@H](O[C@H]8[C@H](O)[C@@H](O)[C@@H](O[C@H]1[C@H](O)[C@H]2O)O[C@@H]8CO)O[C@@H]7CO)O[C@@H]6CO)O[C@@H]5CO)O[C@@H]4CO)O[C@@H]3CO [Beta-Cyclodextrin] | inactive: 1930 | inactive: 4370
O=C(O)c1ccccc1O [2-Hydroxy Benzoic Acid] | inactive: 684 | inactive: 1100

Compound | respiration area under curve [1] | respiration area under curve [2]
COC(=O)CCC(=O)O [Mono Methyl Succinate] | inactive: 4720 | inactive: 6010
CC(O)C(C)O (stereo unspecified) [2,3-Butanediol] | inactive: 7490 | inactive: 4150
OC[C@@]12OC[C@@H](O1)[C@@H](O)[C@@H](O)[C@@H]2O [Sedoheptulosan] | inactive: 1420 | inactive: 3250
N[C@@H](CO)C(=O)O [L-Serine] | inactive: 2720 | active: 10900
CC(O)(CC(=O)O)C(=O)O (stereo unspecified) [Citramalic Acid] | active: 10100 | inactive: 3470
COC1OC(CO)C(O)C(O)C1O [Alpha-Methyl-D-Galactoside] | inactive: 1430 | active: 10900
COC(=O)[C@@H](C)O [D-Lactic Acid Methyl Ester] | active: 8930 | active: 10600
O=C(O)[C@@H](O)[C@H](O)[C@H](O)[C@@H](O)C(=O)O [Mucic Acid] | active: 11700 | active: 10500
OC[C@H]1O[C@@H](O)[C@H](O)[C@H](O)[C@@H]1O [Beta-D-Allose] | inactive: 3040 | inactive: 3110
O=C1CCC(C(=O)O)O1 (stereo not drawn) [Alpha-Hydroxy Glutaric Acid-Gamma-Lactone] | inactive: 2010 | inactive: 3090
O=CO [Formic Acid] | inactive: 2950 | inactive: 7050
OC[C@H]1O[C@@](CO)(O[C@H]2O[C@H](CO)[C@@H](O)[C@H](O)[C@H]2O)[C@@H](O[C@H]2O[C@H](CO)[C@@H](O)[C@H](O)[C@H]2O)[C@@H]1O [D-Melezitose] | inactive: 1520 | inactive: 4070
OC[C@@H]1OC(O)[C@@H](O)[C@H](O)[C@H]1O (stereo partly drawn) [L-Glucose] | inactive: 1580 | inactive: 3600
CCC(=O)C(=O)O [Alpha-Keto-Butyric Acid] | active: 9580 | inactive: 2460
Nc1ncnc2c1ncn2[C@@H]1O[C@H](CO)[C@@H](O)[C@H]1O [Adenosine] | inactive: 2360 | active: 12100
NC(=O)CCC(=O)O [Succinamic Acid] | inactive: 4110 | inactive: 5170
CCCC(=O)C(=O)O [Alpha-Keto-Valeric Acid] | active: 10800 | inactive: 3090
OC[C@H]1O[C@@H](O[C@@H]2[C@@H](CO)OC(O)(CO)[C@H]2O)[C@H](O)[C@@H](O)[C@H]1O (mixture of isomers) [Lactulose] | inactive: 1600 | active: 10200
O=C(O)[C@@H](O)[C@@H](O)[C@H](O)[C@@H](O)C(=O)O [D-Saccharic Acid] | active: 12300 | active: 12600
O=C(O)[C@H](O)[C@@H](O)C(=O)O [L-Tartaric Acid] | inactive: 2530 | active: 10700
CC(=O)N[C@@H](CO)[C@@H](O)[C@H](O)[C@H](O)CO [N-Acetyl-D-Glucosaminitol] | inactive: 1730 | inactive: 3930

Compound | respiration area under curve [1] | respiration area under curve [2]
C/C=C/C=C/C(=O)O [Sorbic Acid] | active: 11000 | inactive: 3710
O=C(O)C[C@H](O)C(=O)O [L-Malic Acid] | active: 11600 | active: 11200
CC(=O)N[C@H]1[C@@H](O)[C@H](O)[C@@H](CO)O[C@H]1O [N-Acetyl-Beta-D-Mannosamine] | inactive: 2500 | active: 8940
O=C(CO)[C@@H](O)[C@@H](O)[C@H](O)CO [D-Tagatose] | inactive: 1790 | active: 11500
CC(O)CC(=O)O (stereo not drawn) [Beta-Hydroxy Butyric Acid] | active: 11400 | active: 10900
O=C(CO)[C@@H](O)[C@H](O)[C@@H](O)C(=O)O [5-Keto-D-Gluconic Acid] | inactive: 3000 | inactive: 5190
O=C(O)CC(CC(=O)O)C(=O)O [Tricarballylic Acid] | active: 10500 | inactive: 4010
OC[C@H]1O[C@H](O[C@H]2O[C@H](CO)[C@@H](O)[C@H](O)[C@H]2O)[C@H](O)[C@@H](O)[C@@H]1O [D-Trehalose] | inactive: 1380 | active: 12700
O=C(CO)[C@@H](O)[C@H](O)[C@H](O)CO[C@H]1O[C@H](CO)[C@@H](O)[C@H](O)[C@H]1O [Palatinose] | inactive: 2640 | active: 10800
O=C1O[C@H](CO)[C@@H](O)[C@H]1O [D-Ribono-1,4-Lactone] | active: 10700 | inactive: 2720
O=C(O)C[C@@H](O)C(=O)O [D-Malic Acid] | inactive: 7720 | inactive: 7180
O=c1[nH]cnc2c1ncn2[C@@H]1O[C@H](CO)[C@@H](O)[C@H]1O [Inosine] | inactive: 2670 | active: 12200
O=C(O)CO [Glycolic Acid] | inactive: 1860 | inactive: 3650
CO[C@@H]1O[C@H](CO)[C@@H](O)[C@H](O)[C@H]1O [Beta-Methyl-D-Glucoside] | inactive: 1920 | active: 11000
CC(C)[C@H](N)C(=O)O [L-Valine] | inactive: 1790 | inactive: 3650
O=P(O)(O)OCC(O)CO (racemic) [D,L-alpha-Glycerol-Phosphate] | inactive: 1600 | active: 11300
N[C@@H](CCO)C(=O)O [L-Homoserine] | inactive: 1240 | inactive: 3200
OC[C@@H](O)C(O)[C@H](O)CO [D-Arabitol] | inactive: 1610 | active: 12300
NCC(=O)O [Glycine] | inactive: 575 | inactive: 3330
C[C@@H](O)[C@H](O)[C@H](O)[C@@H](O)C=O [D-Fucose] | inactive: 3590 | inactive: 4230
N[C@H](CO)C(=O)O [D-Serine] | inactive: 1900 | inactive: 7360
